Results on 69 molecules are retold here after PubChem BioAssay AID488969 (Vanderbilt High Throughput Screening Facility, 2010).

Whole data set: some 110,000 compounds, median “z-score” near -0.1, cut for the highest 2% near 2. Some of the results follow.

The assay addresses Metabotropic glutamate receptor 8 (Rattus norvegicus) (UniProt P70579). Nature of the assay: mGluR8 Gi/Go-coupled signaling modulation – cell-based, rat, thallium flux, HTS, primary screen (AID 488969). As to conditions: HEK293 rat mGluR8, GIRK (G protein-gated inwardly rectifying potassium channel) thallium flux, FluoZin2; at 10 µM; stronger effect = higher value; submaximal glutamate (EC20) added with thallium.
UniProt P70579, sequence (P70579 whole entry, looked up): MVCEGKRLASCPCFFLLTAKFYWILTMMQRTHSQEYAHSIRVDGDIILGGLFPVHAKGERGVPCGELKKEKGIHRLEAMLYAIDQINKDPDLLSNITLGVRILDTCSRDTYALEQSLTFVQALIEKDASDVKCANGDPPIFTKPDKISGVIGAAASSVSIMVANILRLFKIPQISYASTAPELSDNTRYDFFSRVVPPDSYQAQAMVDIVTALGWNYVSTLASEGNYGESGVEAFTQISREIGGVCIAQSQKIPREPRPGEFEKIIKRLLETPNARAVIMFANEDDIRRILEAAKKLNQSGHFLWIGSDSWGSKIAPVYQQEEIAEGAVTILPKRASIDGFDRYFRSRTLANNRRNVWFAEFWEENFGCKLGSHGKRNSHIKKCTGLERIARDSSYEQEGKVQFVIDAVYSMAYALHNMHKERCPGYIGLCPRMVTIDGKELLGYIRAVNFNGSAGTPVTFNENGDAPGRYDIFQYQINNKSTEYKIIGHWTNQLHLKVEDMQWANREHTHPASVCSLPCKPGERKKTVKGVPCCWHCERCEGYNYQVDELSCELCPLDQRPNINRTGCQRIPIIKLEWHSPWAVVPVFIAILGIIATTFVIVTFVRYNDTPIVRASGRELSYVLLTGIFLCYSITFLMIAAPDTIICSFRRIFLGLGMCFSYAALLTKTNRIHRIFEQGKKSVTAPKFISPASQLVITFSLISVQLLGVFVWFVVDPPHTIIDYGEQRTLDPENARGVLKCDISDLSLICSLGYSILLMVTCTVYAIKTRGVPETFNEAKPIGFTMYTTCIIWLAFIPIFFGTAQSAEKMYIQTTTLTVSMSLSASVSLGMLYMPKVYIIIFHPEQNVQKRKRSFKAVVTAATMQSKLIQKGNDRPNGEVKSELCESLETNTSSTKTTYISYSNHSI
For `O=C1/C(=C\Nc2ccc(Cl)cc2)CCN1c1ncccn1`, the z-score amounted to 0.111.

The molecule `CCOc1ccccc1NC(=O)COC(=O)c1cccc(-c2ccc(OC(C)=O)cc2)c1` had a z-score of 0.391.

For `O=C1c2ccccc2C(=O)N1CCCN1CCN(CCCN2C(=O)c3ccccc3C2=O)CC1`, the z-score came to 0.393.

Regarding `COc1ccc(OC)c(-c2csc(NC(=O)c3ccc(OCC4CCCO4)cc3)n2)c1` (centres undefined), the z-score was -0.558.

Molecule `CCOc1ccccc1NC(=O)CCC(=O)Nc1ccccc1OCC` showed a z-score of -0.795.

`Cc1nn(-c2ccccc2)c(C)c1NC(=O)COc1ccc(Br)cc1Cl` came in with a z-score of -0.186.

`Nc1cc(Cl)nc(N/N=C/c2ccccc2[N+](=O)[O-])n1`: the z-score was found to be 1.31.

`NC(=O)COc1ccccc1/C=C1/SC(=O)N(CC(=O)N2CCc3ccccc3C2)C1=O` registered a z-score of -0.526.

`CC(=O)Nc1ccccc1-c1ccc(C)o1`: the z-score was -0.135.

As to `Cc1cc(C)c(C)c(OC(=O)c2sc(Cl)nc2C)c1`, the z-score is -0.103.

Consider `CC(C)[C@H](NC(=O)c1ccc(F)cc1)C(=O)OCC(=O)NC(=O)c1cccn1C`, for which the z-score is 1.24.

As for `Cc1ccc(NC(=O)c2cc([N+](=O)[O-])ccc2NCc2cccnc2)cc1Cl`, the z-score is 0.144.

For `CCCCCCn1cnc2c(c1=O)c1nc3ccccc3nc1n2Cc1cccs1`, the z-score was -1.43.

For the molecule `Cc1nnc2n1N=CC=C(c1ccccc1)S2`, the z-score came to 0.236.

Turning to `Cc1nc(C)c(C(=O)Nc2ccccc2-c2ccccc2)o1`, the z-score is -0.0653.

`COc1ccc(N(CC(=O)NCc2cccnc2)S(=O)(=O)c2c(C)nn(C)c2C)cc1` came in with a z-score of 0.022.

`CS(=O)(=O)N1N=C(c2ccco2)CC1c1ccccc1` (centres undefined): the z-score was -0.108.

`CC(C)NS(=O)(=O)c1ccc(NC(=O)C2CC3C=CC2C3)cc1` (centres undefined) showed a z-score of -0.0807.

`O=c1oc2ccccc2c(N2CCCC2)c1CN1CCCC1` gave a z-score of -0.557.

Molecule `O=C(NCC1CCN(c2ccc(S(=O)(=O)N3CCOCC3)cc2)CC1)c1cccc(Cl)c1` registered a z-score of 0.0384.

On to `CCN(CC)S(=O)(=O)c1ccc(NC(=O)Cn2cnc3ccccc3c2=O)cc1`, for which the z-score is -0.403.

`COc1cc(NC(=O)CCCC(=O)OCC(F)(F)C(F)F)nc(OC)n1` yielded a z-score of -1.96.

In turn, `Cc1c(/C=N/NC(=O)c2sc3ccccc3c2Cl)cnn1C` registered a z-score of -0.419.

The molecule `CC(C)(C)Nc1cccccc1=O` yielded a z-score of 0.435.

For `CC(O)(CS(=O)(=O)Cc1ccccc1Cl)C(=O)Nc1cccc(C(F)(F)F)c1` (centres undefined), the z-score is 0.0796.

`O=C(CSc1ncnc2c1nnn2-c1ccc(F)cc1)N1CCN(c2ccccc2)CC1`: the z-score was 0.315.

As to `CC1CC(C)(C)NCc2ccccc21` (centres undefined), the z-score is -0.185.

Turning to `Cc1cccc(CN2CCNC2=O)c1`, the z-score was 0.122.

For `Cc1ccc(C(=O)NCCc2nnc3ccc(SCC(=O)Nc4c(C)cc(C)cc4C)nn23)cc1`, the z-score was -0.547.

Molecule `Cc1cc(NC(=O)CS(=O)(=O)c2cn(Cc3ccc(F)cc3)c3ccccc23)no1` had a z-score of -0.23.

Molecule `CN(C)c1nc(N)nc(CSc2nnnn2-c2ccc(C(=O)O)cc2)n1` registered a z-score of 0.156.

Molecule `CCC(=O)Nc1cc(C(=O)OCC(=O)c2ccc(Cl)cc2Cl)ccc1C` showed a z-score of 0.419.

As for `COc1ccc(/C=C(/NC(=O)c2ccccc2)C(=O)N/N=C/c2cccs2)cc1OC`, the z-score was determined as 0.206.

`Cc1cc(NC(=O)C2C3C(=O)N(Cc4ccc(Cl)cc4)C(C(=O)NC4CCCCC4)C34C=CC2(C)O4)no1` (centres undefined) registered a z-score of -0.174.

As for `Cc1ccc(CSc2nnc(-c3ccc4c(c3)OCO4)o2)cc1`, the z-score is -0.118.

In the case of `O=c1cc(CSc2nc(NCc3ccccc3)c3ccccc3n2)nc2ccc(Cl)cn12`, the z-score is -0.232.

As to `O=S(=O)(N1CCCCCC1)N1CCN(S(=O)(=O)N2CCCCC2)CC1`, the z-score was -0.247.

Consider `CC1CCCCN1CCNc1nc(=S)[nH]c2ccccc12` (centres undefined), for which the z-score is -0.105.

As to `Cc1ccc(-c2nc3ncccc3o2)cc1NC(=O)Cc1ccc(Cl)cc1`, the z-score worked out at 0.497.

Regarding `CC(C)(C)C(=O)N=C1SC2CS(=O)(=O)CC2N1c1ccc2c(c1)OCO2` (centres undefined), the z-score is -0.0529.

Molecule `O=C(O)CSc1nnc(-c2ccncc2)n1Cc1ccccc1` returned a z-score of -0.0551.

`CCCCC(=O)Nc1c(C)cc(C)cc1Cl` registered a z-score of -0.441.

For the molecule `COc1cccc(NC2C=CS(=O)(=O)C2)c1` (centres undefined), the z-score is -0.155.

In turn, `COc1ccc(N(CC(=O)Nc2ccccc2C(=O)N2CCOCC2)S(=O)(=O)c2ccc(F)cc2)cc1` returned a z-score of -0.218.

Take `O=C1NC(=O)C2(CCC(C(=O)O)C2)N1` (centres undefined): the z-score was found to be 0.268.

`CCn1c2ccccc2c2nnc(SCC(=O)NC3CCS(=O)(=O)C3)nc21` (centres undefined) displayed a z-score of -0.103.

For `Cc1ccc(N=C(NOCc2ccc(Cl)cc2Cl)c2nonc2N)c(C)c1`, the z-score is -0.408.

`CCOC(=O)c1cc(NC(=O)c2ccoc2C)cc(C(=O)OCC)c1` came in with a z-score of -2.39.

As for `O=C(Nc1ccc(N2CCCCC2)c(Cl)c1)c1cccnc1`, the z-score was -0.0422.

With `O=C(/C=C/c1cccs1)Nc1ccc(N2CCOCC2)c(S(=O)(=O)Nc2ccccc2Cl)c1`, the z-score was -0.602.

Regarding `CC(C)n1cc(/C=C2\NC(=O)N(c3cccc(Cl)c3)C2=O)c2ccccc21`, the z-score is -0.0208.

`CC(C)CCOC(=O)C1C(c2ccccc2)C(C(=O)O)C1c1ccccc1` (centres undefined) gave a z-score of 0.224.

Consider `O=C(CSc1nc2ccccc2n1CC(=O)N1CCOCC1)N1CCCC1`, for which the z-score came to 0.588.

For `O=C(CCSc1ccccc1)Nc1ncccn1`, the z-score was 1.14.

The molecule `CC(C)(C)N1C(=O)Cc2c1nc(N)c1c(N)nc(N3CCCCC3CO)c(C#N)c21` (centres undefined) displayed a z-score of -1.02.

Molecule `Cc1cc2cc(CN(Cc3cccs3)C(=S)NCC3CCCO3)c(=O)[nH]c2cc1C` (centres undefined) gave a z-score of -0.14.

The molecule `O=C(c1cc(-c2ccco2)on1)N1CCN(C(c2ccccc2)c2ccccc2)CC1` returned a z-score of -0.155.

For `Cn1c(CCN2CCCCC2)nc2cc([N+](=O)[O-])ccc21`, the z-score is -0.206.

For `Cn1c2ccccc2n2c(=O)c(=O)n(CC(=O)c3ccc(F)cc3)nc12`, the z-score was -0.37.

Take `CC1Cc2ccccc2N1C(=O)COC(=O)C1(c2ccccc2F)CCCC1` (centres undefined): the z-score was -0.536.

With `Nc1ccc(Cc2nc3c(ccc4ccccc43)[nH]2)cc1`, the z-score is -0.049.

On to `C=CCNc1nc(C2(C)CC3(CC(C)(C)OC3=O)C(=O)O2)cs1` (centres undefined), for which the z-score was -0.181.

In the case of `Cc1ccc(OCCCCn2cnc3ccccc32)c(C)c1`, the z-score is -0.0373.

Regarding `CC(/C=N/NC(=O)c1cc(-c2ccc(C)s2)[nH]n1)=C\c1ccccc1`, the z-score is -0.801.

Molecule `Oc1ccc(NCc2ccccc2OCc2ccccc2F)cc1` showed a z-score of -0.322.

The molecule `Cc1ccc2nc(-c3sc4nc(C)ccc4c3N)[nH]c2c1` showed a z-score of -2.05.

Regarding `COc1cccc(OC)c1C(=O)Nc1ccccc1C(=O)N1CCOCC1`, the z-score is -0.216.

Regarding `COc1cc2nc(C3CCC3)n(NC(=O)C3CCC(OC)CC3)c(=O)c2cc1OC` (centres undefined), the z-score was 1.79.

In turn, `CC(=O)Nc1ccccc1NC(=O)CN(C)S(=O)(=O)c1ccc(C)cc1` yielded a z-score of -0.197.
